Measured values taken from ChEMBL document CHEMBL1156829.
In all, about 5,400 compounds were measured (“IFI”: median about 2, highest 2% from about 22 on). The list shows a part of the results.

experiment: NOVARTIS: Inhibition Frequency Index (IFI) - the number of HTS assays where a compound showed > 50% inhibition/induction, expressed as a percentage of the number of assays in which the compound was tested.; assay type: functional

Row | Compound | IFI [%]
1 | O=C(CSc1nc2ccccc2c(=O)n1C1CC1)Nc1cc(C(F)(F)F)ccc1Cl | 0
2 | CCOc1cc(-c2nnc3[nH]c(=O)n(C)c(=O)c3n2)ccc1OC(C)C | 4.44
3 | CCCNC1=C(c2ccc(OC)cc2)C(=O)c2ccccc21 | 0
4 | CCOC(=O)C(=O)N1c2ccc(C)cc2C(C)(c2ccccc2)CC1(C)C (stereo not drawn) | 1.07
5 | O=C(CSc1ccc2nnc(-c3cccs3)n2n1)Nc1ccc2c(c1)OCCO2 | 4.17
6 | CSC1=NC(=Nc2c(C)cccc2C)C2(CCC(C(C)(C)C)CC2)N1c1ccc(Cl)cc1 (stereo not drawn) | 0
7 | COc1cc(OC)cc(C(=O)NCc2n[nH]c(=S)n2-c2ccc(Br)cc2)c1 | 2.3
8 | C=CCC1(Nc2ccccc2)CCCCC1 | 0
9 | CC(=O)OC1C(NC(=O)c2cc([N+](=O)[O-])c(N(C)C)c([N+](=O)[O-])c2)OC(C(=O)N2CCOCC2)C(OC(C)=O)C1OC(C)=O (stereo not drawn) | 0
10 | CC(=O)NC(CO)C(O)c1ccc([N+](=O)[O-])cc1 (stereo not drawn) | 0
11 | COc1ccc(CCN2CCC(NCc3cccc(N(C)C)c3)CC2)cc1 | 0
12 | O=C1Nc2ccc(S(=O)(=O)Nc3ccc(NS(=O)(=O)c4ccc5c6c(cccc46)C(=O)N5)cc3)c3cccc1c23 | 2.08
13 | CC(C)CNc1nc(NCCCN2CCCC2)ncc1C(=O)NCc1ccccc1 | 2.86
14 | COc1ccc(C2C(C(C)=O)=C(O)C(=O)N2CCCn2ccnc2)c(OC)c1 (stereo not drawn) | 0
15 | CC1=C(C(=O)Nc2ccc(C)cc2C)C(c2ccc([N+](=O)[O-])cc2)n2ncc(C(=O)Nc3ccc(F)cc3)c2N1 (stereo not drawn) | 0
16 | CCN(CC)CCCC(C)NCc1ccc(OCc2ccccc2)c(OC)c1 (stereo not drawn) | 7.14
17 | O=C(NC1CCN(Cc2ccccc2)CC1)c1cc([N+](=O)[O-])cc([N+](=O)[O-])c1 | 1.5
18 | Cc1ccc(NC(=O)CSc2nc3cc(C(=O)NCCCOC(C)C)ccc3c(=O)n2Cc2ccco2)cc1Cl | 0
19 | N#CCSc1nc2c(sc(=S)n2-c2ccccc2)c(=O)n1Cc1ccco1 | 0
20 | CCN1CCN(c2ccc(Nc3c4ccccc4nc4ccccc34)cc2)CC1 | 21.4
21 | CCCN(CCC)S(=O)(=O)c1cc(Br)cc2c1N(C(=O)C1CC1)CC2 | 0
22 | O=C1CSC(=Nc2ccc(F)c(Cl)c2)N1c1ccc(F)c(Cl)c1 | 0
23 | CC(C)CNC(=O)c1cnc(NCCCN2CCCCC2C)nc1Nc1ccccc1 (stereo not drawn) | 1.85
24 | CCOC(=O)C(=CNc1ccc(I)cn1)C(=O)OCC | 2.53
25 | CN(CCCNc1ccnc2cc(Cl)ccc12)C(=O)COCc1ccccc1 | 0.935
26 | CN(CCCNc1ccnc2cc(Cl)ccc12)C(=O)c1ccc(-c2ccccc2)cc1 | 2.83

Row | Compound | IFI [%]
27 | COc1ccccc1N(CN1C(=O)c2ccc(Br)cc2C1=O)C(C)=O | 0
28 | CCCCN1C(=O)/C(=C/N(C(=O)CC)c2ccccc2)SC1=S | 0
29 | O=C1CC(c2ccccc2)CC2=C1C(c1ccccc1F)Nc1ccccc1N2 (stereo not drawn) | 1.18
30 | Cc1c(C(=O)Nc2ccccc2)sc2ncn(Cc3ccccc3F)c(=O)c12 | 0
31 | CC(C)c1nc(N2CCN(C(=O)Nc3ccccc3)CC2)c(C#N)c2c1COC(C)(C)C2 | 2.41
32 | COc1cc(NC(C)CCCN(Cc2ccc(Cl)cc2)C(=O)Nc2ccc(Cl)cc2Cl)c2ncccc2c1 (stereo not drawn) | 1.8
33 | Nc1ccnc2cc(Cl)ccc12 | 1.75
34 | COc1ccc(CCN2C(=O)CC(C(=O)Nc3cccc(Cl)c3)SC2=Nc2ccccc2)cc1OC (stereo not drawn) | 0
35 | COc1ccc(Cl)cc1-n1c(-c2cccnc2)n[nH]c1=S | 0
36 | COc1ccc(-c2csc3nc(COc4cccc(C)c4)nn23)c(O)c1 | 0
37 | Cc1oc2c(c1C(=O)N1CCCC1)C(=O)c1ccccc1C2=O | 6.67
38 | CCN1/C(=C/c2sc3ccccc3[n+]2CC)C=Cc2cc(NC(C)=O)ccc21 | 7.69
39 | CC(C)CN1C(=O)c2ccccc2C(C(=O)Nc2cccc(Cl)c2)C1c1cccs1 (stereo not drawn) | 6.25
40 | CCOc1ccc(CN(C(=O)COc2ccc(Cl)cc2)C(C)CCCN(CC)CC)cc1 (stereo not drawn) | 2.7
41 | CC(C)(CCl)C(=O)NCCCCNc1ccnc2cc(Cl)ccc12 | 1.87
42 | CC(C)(C)CC(C)(C)Nc1c(-c2ccccc2OC(=O)c2cccc(Br)c2)nc2ccccn12 | 4.72
43 | CCCN1CCC(NC2CCCc3c2[nH]c2ccc([N+](=O)[O-])cc32)CC1 (stereo not drawn) | 8.33
44 | Cc1ccc(-c2cc(C(F)(F)F)n3ncc(C(=O)Nc4cc(Cl)ccc4O)c3n2)cc1 | 4.65
45 | Clc1ccc(C[n+]2cc(-c3ccccc3)n3c2CCC3)cc1Cl | 3.77
46 | CCN(c1ccccc1)S(=O)(=O)c1ccc(F)c(C(=O)Nc2c(C)cccc2C)c1 | 0
47 | COC(=O)c1ccc(S(=O)(=O)N2CCC3(CC2)Nc2ccccc2-n2cccc23)cc1 | 0
48 | Cn1c(=O)n(C)c2cc(NC(=O)CCl)ccc21 | 0
49 | CC(CNC(=O)c1cn(C2CCCCC2)cc(C(=O)NC(C)(C)C)c1=O)c1ccccc1 (stereo not drawn) | 0.99
50 | COc1cc(OC)cc(C(=O)N2CCC(C(=O)Nc3cccc4ccccc34)CC2)c1 | 1.92
51 | O=C(NN=Cc1ccncc1)c1cc(-c2cccc([N+](=O)[O-])c2)[nH]n1 | 0
52 | CCc1noc(C)c1C(=O)NCCN1Cc2ccccc2OC(c2ccsc2)C1 (stereo not drawn) | 0

Row | Compound | IFI [%]
53 | Cc1ccc2nc(-c3ccccc3)cc(C(=O)Nc3ccc(Cl)cc3)c2c1 | 3.08
54 | Clc1ccc(-c2c[n+](Cc3ccccc3Cl)c3n2CCC3)cc1Cl | 7.32
55 | O=C1CN(C(=O)CC2CCCCC2)C(c2ccccc2)c2cc(Cl)ccc2N1 (stereo not drawn) | 2.27
56 | N#Cc1ccccc1Cn1ccc(=NCc2ccccc2)cc1 | 0
57 | CCN1/C(=C/c2cccc[n+]2C)C=Cc2cc(C)ccc21 | 15.4
58 | COc1ccc(-c2csc3ncn(N)c(=O)c23)cc1 | 0
59 | COc1cccc(C2Sc3ccccc3NC3=C2C(=O)c2ccccc23)c1 (stereo not drawn) | 3.57
60 | O=C(Nc1cnc2ccccc2c1)c1cccc(-n2cnnn2)c1 | 7.21
61 | OCC1CCCCN1Cc1cc(-c2ccccc2)ccc1O (stereo not drawn) | 0.84
62 | Fc1cc(F)c(C2SCCN2C(=S)Nc2cccc(C(F)(F)F)c2)c(F)c1 (stereo not drawn) | 0
63 | Oc1ccc(-c2cncc(NCc3ccccc3)n2)cc1 | 0
64 | N=c1n(Cc2ccccc2)c2ccccc2n1CC(O)c1ccc(Br)cc1 (stereo not drawn) | 0
65 | CCN(CC)CCNc1ccnc2cc3ccccc3cc12 | 7.45
66 | O=C(c1ccc2nc(N3CCCCC3)sc2c1)N1CCN(Cc2ccccc2)CC1 | 0
67 | CC1CCc2c(sc(NC(=O)c3ccccc3F)c2C(=O)NCc2ccccc2)C1 (stereo not drawn) | 0
68 | Cc1cc2c(cc1S(=O)(=O)N(C)C1CCCCC1)OCC(=O)N2 | 0
69 | Cc1ccc(S(=O)(=O)Nc2ccc(C(=O)NCCC(C)C)cc2)cc1 | 0
70 | CCc1ccc(C=NNC(=O)COc2ccc3c(c2)OCO3)cc1 | 0
71 | COc1ccc(OCCOCCN2CCN(C)CC2)cc1 | 0
72 | Cc1occc1C(=O)NN=C/C(Cl)=C/c1ccccc1 | 7.69
73 | Cc1cccc(NC2=NC(N)=NC(C)(C)N2)c1 | 0
74 | CCc1ccc(CN2CCC(O)(c3ccc4oc(C(=O)Nc5ccc6c(c5)OCO6)cc4c3)CC2)cc1 | 6.9
75 | COc1ccccc1NC1=CC(=NS(=O)(=O)c2ccc(F)cc2)c2ccccc2C1=O | 15.4
76 | O=c1c2ccccc2[nH]c2cc(Cl)ccc12 | 2.7
77 | CCCCOc1ccc(/C=C(/C#N)c2nc(-c3ccc(-c4ccccc4)cc3)cs2)cc1 | 0
78 | COc1cc(NC(C)CCCN(Cc2ccc(F)cc2)C(=O)CCc2ccccc2)c2ncccc2c1 (stereo not drawn) | 1.71

Row | Compound | IFI [%]
79 | Cc1cc(/C=C2\SC(=Nc3ccccc3)N(C3CCCCC3)C2=O)c(C)n1-c1ccc(Br)cc1 | 1.18
80 | Cc1c2ccccc2cc(Cc2ccccc2)[n+]1C | 6.3
81 | COc1ccc(/C=C2\N=C(c3ccc(Cl)cc3)N(c3ccccc3)C2=O)cc1OC | 0
82 | Cc1c(C(=O)NCCN2CCCC2)cnn1-c1ncc2c(n1)-c1ccccc1SC2 | 2.59
83 | c1ccc2cc3c(Nc4ccc(N5CCOCC5)cc4)ccnc3cc2c1 | 0
84 | Cc1ccc(C2CC3=Nc4ccccc4N(C(=O)C(F)(F)F)C(c4ccc(OCc5ccccc5)cc4)C3=C(O)C2)cc1 (stereo not drawn) | 2.44
85 | Nc1nc(N)c2cc(S(=O)(=O)N3CCOCC3)ccc2n1 | 9.38
86 | CCCCCCN(C(=O)COc1ccccc1)C(CC)c1nc2ccccc2c(=O)n1-c1cccc(Cl)c1 (stereo not drawn) | 0.935
87 | Cc1ccc(Nc2cc(C)nc(NCc3ccccc3)n2)c(C)c1 | 10.4
88 | COc1ccc(C)cc1Nc1nc(N)c2cc(OC)c(OC)cc2n1 | 0
89 | CN(C)CCNc1ncnc2c1[nH]c1ccc(Cl)cc12 | 7.84
90 | CN(C)CCCNc1ncnc2c1[nH]c1ccc(Br)cc12 | 4
91 | O=C(Nc1ccncc1)Nc1cccc(NC(=O)Nc2ccncc2)c1 | 0
92 | Cc1cccc(CN2CCC(CNC(=S)Nc3ccc4nc(N5CCN(C)CC5)cc(C)c4c3)CC2)c1 | 8.33
93 | Cc1ccn2c(NC(C)(C)CC(C)(C)C)c(-c3ccccc3OC(=O)c3ccc(F)cc3)nc2c1 | 2.8
94 | O=C(C1CC1)N1CCc2cc(Br)cc(S(=O)(=O)N3CCCCCC3)c21 | 0
95 | CCCN1CCC(NC(c2ccccc2)c2ccc(Cl)cc2)CC1 (stereo not drawn) | 1.61
96 | CCNc1nc(NC(C)(C)C)nc(N2CCCC2)n1 | 0
97 | Cc1cccc(Nc2c3c(c(C#N)c4nc5ccccc5n24)CCC3)c1 | 0
98 | CCC(=O)N1CCN(C(=O)c2ccc(C)cc2)C1 | 0
99 | CN1CCN(C(=S)NC(=O)/C=C/c2ccc(F)cc2)CC1 | 0
100 | CCCCCN(C(=O)c1ccc(C(C)(C)C)cc1)C(CC)c1nc2ccccc2c(=O)n1-c1ccccc1OC (stereo not drawn) | 0
101 | Cc1ccc(OCCCCN2CCOCC2)c([N+](=O)[O-])c1 | 0
102 | Clc1ccc(-c2c[n+](Cc3ccccc3Cl)c3n2CCC3)cc1 | 2.38
103 | CCCCN1Cc2ccc(C(=O)NC(C)C)cc2N=C1c1ccc(F)cc1 | 1.22
